From PubChem BioAssay AID1347120 (National Center for Advancing Translational Sciences (NCATS), 2019)
Screen size: about 390,000 compounds; about 930 (0.24%) were called active. The shares of active, inactive and inconclusive entries below differ from those in the screen. Calls come from the whole dose curve; as a rule, active = well fitted activation curve with a large enough effect; inconclusive = small, poorly fitted or top-dose-only effect; inactive = no such curve, though single readings can be large or run the other way. A potency beside an inconclusive call is a rough fit, not a confirmed value.

Experiment: qHTS for Suppressors of FUS Proteinopathy: Primary screen using FUS-linked yeast assay; note: nearly all actives have a fitted effect of over 55% in size;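 for growth rescue (activation): plate controls were DMSO vehicle for no effect and reference control for full effect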
Details: S. cerevisiae FUS-expressing, OD600, 24 h; Potency: growth rescue; growth rescue (activation): at 76.6 µM (top of the series)
How it was run: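 Absorbance at 600 nm, taken 24hr after compound addition, measured rescue of FUS-yeast growth at 30C. Induction used 2% galactose with seeding at OD 0.005. Controls: CP55940 from 92uM final, DMSO only.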
Potency is the fitted concentration of half-maximal effect; tags give direction and shape of the fitted curve.

SMILES | Potency | growth rescue (activation)
COc1ccc(Cl)cc1NC(=O)Cn1cc(C(=O)c2ccc(C)cc2)c(=O)c2ccc(C)nc21 | inactive | –
O=C(CSc1nc(O)cc(=O)n1-c1ccccc1)Nc1ccc(Br)cn1 | active: 28.2 µM | –
COC(=O)[C@]12C[C@H](CC(=O)NCc3ccc(OC)c(OC)c3)C(=O)N(CCC3=CCCCC3)C1=C[C@H](C1CCCC1)O[C@@H]2C | active: 14.1 µM | –
Cc1cc(C)c(S(=O)(=O)N2CCN(C(=O)N3CCCCC3)CC2)c(C)c1 | inconclusive: 28.2 µM [activator, partial curve, poor fit] | –
CC(=O)c1ccc2c(c1)C1C=CCC1C(c1cc3c(cc1Br)OCO3)N2 (centres undefined) | inactive | –
Cc1ccccc1-c1cc(C(=O)NCc2cccc(C(F)(F)F)c2)nn1CC1CC(c2cccc([N+](=O)[O-])c2)=NO1 (centres undefined) | inconclusive: 11.2 µM [activator, partial curve] | –
CN(C)c1ccc(/C=C(\C#N)C(=O)Nc2nc3c(s2)CCN(Cc2ccccc2)C3)cc1 | inconclusive: 39.8 µM [activator, partial curve, poor fit] | –
Cc1ccc(NC(=O)c2cc([N+](=O)[O-])ccc2NCc2cccnc2)cc1Cl | inactive | –
CCOc1ccc(-n2nc(CO)c(C(=O)NCCCc3ccccc3)n2)cc1 | inactive | –
COC(=O)c1c(NC(C)=O)sc(Cc2ccccc2)c1C | inactive | –
Cc1cc2ccccc2n1CCNC(=O)c1ccccc1 | inconclusive: 50.1 µM [activator, single point] | –
COc1ccc(NC(=O)C2(C)Cc3c(-c4cccc(C(F)(F)F)c4)ccnc3O2)cn1 (centres undefined) | inconclusive: 31.6 µM [activator, single point] | –
COc1ccc(C2CC(=O)N3CN(c4ccccc4F)CSC3=C2C#N)cc1OC (centres undefined) | inactive | –
CC(Nc1ccc(Br)cc1)C(=O)Nc1cccc(S(=O)(=O)N2CCOCC2)c1 (centres undefined) | inconclusive: 39.8 µM [activator, single point] | –
CC(C)C[C@H](NC(=O)c1[nH]cnc1C(=O)N[C@@H](Cc1ccccc1)C(=O)OC(C)(C)C)C(=O)OCc1ccccc1 | inconclusive: 22.4 µM [activator, partial curve, poor fit] | –
CCSc1cnn(-c2ccccc2)c(=O)c1SCC | inactive | –
CC(CC(=O)Nc1cccc(Cl)c1)c1ccccc1 (centres undefined) | inactive | –
Cc1cc(-c2ccc(C(C)C)c(S(=O)(=O)N3CCN(c4ccccc4)CC3)c2)on1 | inactive | –
COc1ccc(S(=O)(=O)N(C)C[C@H]2Oc3ccc(NC(=O)Cc4cn(C)c5ccccc45)cc3C(=O)N([C@@H](C)CO)C[C@@H]2C)cc1 | inconclusive: 15.8 µM [activator, partial curve, poor fit] | –
CCc1ccc(CN2CCCC(C(=O)Nc3ccc(-c4cscn4)cc3)C2)o1 (centres undefined) | inactive | –
O=C(NCc1ccccc1)c1ccc(N2CCC3(CC2)CC(c2ccccc2)=NO3)c([N+](=O)[O-])c1 | inconclusive: 28.2 µM [activator, single point] | –
C#CCN(C[C@H]1[C@H](OC(=O)NCc2ccco2)[C@H](OC(=O)NCc2ccco2)C[C@H]2C(=O)N(c3ccccc3)C(=O)[C@@H]12)S(=O)(=O)c1ccc(C)cc1 | active: 15.8 µM | –

SMILES | Potency | growth rescue (activation)
CC(=O)/C(N=Nc1nc2c([nH]1)c(=O)n(C)c(=O)n2C)=C(\C)O | active: 2.24 µM | –
COc1ccc(-c2c(-c3cc(OC)cc(OC)c3)n(C)c3ccc(-c4ccc(S(N)(=O)=O)cc4)cc23)cc1 | inconclusive: 50.1 µM [activator, single point] | –
CCOc1ccc(N(CC(=O)NCCc2ccccc2)C(=O)CCC(=O)Nc2cc(C)ccn2)cc1 | inconclusive: 11.2 µM [activator, single point] | –
Cc1cccc(CCNC(=O)CCc2c(C)nc3c4c(C)cc(C)nc4nn3c2C)c1 | inactive | –
Cc1ccc(-c2cc(NC=O)c3ncc(-c4cccc(C(=O)N(C)C)c4)n3c2)cc1 | inconclusive: 12.6 µM [activator, partial curve] | –
CNC(=O)/C(C#N)=C/c1c(N2CCN(c3cccc(Cl)c3)CC2)nc2c(C)cccn2c1=O | inactive | –
COc1ccc(NC(=O)c2ccccc2-c2ccc(C(F)(F)F)cc2)cc1S(=O)(=O)N1CCOCC1 | inconclusive: 31.6 µM [activator, single point] | –
CCOc1ccccc1Oc1ccc(C(F)(F)F)cn1 | inconclusive: 3.55 µM [activator, full curve] | –
Cc1cccc(OCc2nnc(SCC(=O)N3c4ccccc4CC3C)n2C)c1C (centres undefined) | inconclusive: 44.7 µM [activator, single point] | –
COC(=O)c1ccc(N=C2S/C(=C\c3cc(C)n(-c4cccnc4)c3C)C(=O)N2C)cc1 | inconclusive: 3.55 µM [activator, full curve] | –
CC(=O)c1ccc(NC(=O)c2ccc(-c3ccc(Cl)cc3)o2)cc1 | inactive | –
CSCCC(NC(=O)c1ccc([N+](=O)[O-])cc1Cl)C(=O)OCC(=O)NCCCc1ccccc1 (centres undefined) | inconclusive: 39.8 µM [activator, single point] | –
C[C@H](c1ccccc1)N1C[C@H](COCc2ccccc2)Oc2cc(N3CC[C@H](O)C3)ccc2S1(=O)=O | inconclusive: 39.8 µM [activator, single point] | –
CC1C(=O)N(Cc2cn(Cc3ccco3)nn2)CCS(=O)(=O)N1Cc1ccc(-c2cccc(N(C)C)c2)cc1 (centres undefined) | inconclusive: 28.2 µM [activator, single point] | –
O=C(C1CCCN(S(=O)(=O)c2ccccc2[N+](=O)[O-])C1)N1CCN(Cc2ccccc2)CC1 (centres undefined) | inactive | –
Cc1cccc(C)c1NC(=O)CCCN1C(=O)C(c2ccccc2)Oc2cccnc21 (centres undefined) | inactive | –
Cc1ccccc1C(=O)N(Cc1ccccn1)CC1CCCO1 (centres undefined) | inactive | –
COc1ccccc1C(=O)O[C@H]1[C@H](Cc2ccccc2)NS(=O)(=O)[C@H]2C[C@@H]3C=C[C@]12O3 | inconclusive: 22.4 µM [activator, partial curve, poor fit] | –
CCc1ccc([C@@H]2CC=C(C(=O)O)[C@H](c3cccc(Cl)c3)N2S(=O)(=O)c2ccc(C)cc2)cc1 | inconclusive: 28.2 µM [activator, partial curve] | –
CC(C)C[C@H](NC1(C(=O)NCCc2c[nH]c3ccccc23)CCOCC1)C(=O)NCCCc1ccccc1 | inconclusive: 28.2 µM [activator, single point] | –
Cc1cc(NC(=O)CSc2nc3ccccc3n2CCC#N)no1 | inactive | –
Cc1ccc(-n2nc3c(c2NC(=O)C(C)(C)C)CSC3)c(C)c1 | inconclusive: 28.2 µM [activator, partial curve, poor fit] | –

SMILES | Potency | growth rescue (activation)
CCC1(c2ccc(Cl)cc2)NC(=O)N(Cc2ccc(C(=O)OC)cc2)C1=O (centres undefined) | inactive | –
O=S(=O)(c1ccc2nc(NCc3ccccc3Cl)ccc2c1)N1CCCCC1 | inconclusive: 28.2 µM [activator, single point] | –
CCOC(=O)[C@]12CCCC=C1N(Cc1ccc(OC)cc1)C(=O)[C@@H]2CC(=O)NCc1cccc(C(F)(F)F)c1 | inconclusive: 11.2 µM [activator, partial curve] | –
CCN(Cc1ccccc1)S(=O)(=O)c1ccc(C(=O)N(CCCN(C)C)c2nc3cc(C)cc(C)c3s2)cc1 | inconclusive: 39.8 µM [activator, single point] | –
O=C(c1ccc2c(c1)OCO2)N1CCC2(CC1)Oc1ccc(F)cc1C(=O)C21CC(c2ccccc2)=NO1 (centres undefined) | inconclusive: 31.6 µM [activator, partial curve] | –
O=C1c2ccc(Br)cc2C(=O)N1c1ccc(Cl)cn1 | inconclusive: 28.2 µM [activator, single point] | –
CCCCC(=O)N(C)c1c(CC)nc2c(OCC(=O)c3ccc(F)cc3)cccn12 | inactive | –
CC(Sc1nnc(-c2ccncc2)n1C)C(=O)Nc1nccs1 (centres undefined) | inactive | –
O=C(O)c1cc(NCc2ccc(F)cc2)ccc1N1CCOCC1 | inactive | –
CCOCCCN1C(=O)c2[nH]nc(-c3ccccc3O)c2C1c1ccc(CC)cc1 (centres undefined) | inconclusive: 31.6 µM [activator, single point] | –
O=C(NC1CC1)c1cc2c(s1)-c1ccccc1OC2 | inactive | –
COC(=O)[C@]12CCCCC=C1N(Cc1ccco1)C(=O)[C@H](CC(=O)NCCCCc1ccccc1)C2 | inconclusive: 50.1 µM [activator, single point] | –
Cc1cc(C)cc(N2C(=O)CSC23C(=O)N(CC(=O)Nc2ccc(F)cc2F)c2ccccc23)c1 (centres undefined) | inactive | –
CCCCNc1cnn(-c2ccccc2)c(=O)c1Cl | inactive | –
CCOC(=O)[C@@H]1[C@H]2COc3ccc(Br)cc3[C@H]2N2C(=O)N(c3ccc(Cl)cc3)C(=O)[C@]12C | inconclusive: 28.2 µM [activator, single point] | –
CCNc1ccc(C(=O)OCC)cc1NC(=O)c1cccc(S(=O)(=O)N(C)c2ccccc2)c1 | inconclusive: 8.91 µM [activator, partial curve] | –
COc1cccc(CNC(=O)c2oc3c(c2C)-c2nn(Cc4cccc(Cl)c4)cc2CC3)c1OC | inconclusive: 15.8 µM [activator, partial curve, poor fit] | –
COc1ccccc1C(=O)N1CCC(c2noc(-c3ccc(S(=O)(=O)N4CCCC4)cc3)n2)CC1 | inconclusive: 44.7 µM [activator, single point] | –
CCOc1ccc(S(=O)(=O)N2CCCCCC2)c2ccccc12 | – | inconclusive: 87.2% [activator]
COc1ccc(C(=O)c2c(-c3ccc(OC)cc3)oc3ccc(-c4cc(OC)c(OC)c(OC)c4)cc23)cc1 | inconclusive: 50.1 µM [activator, single point] | –
